Among all 330,000 compounds or so, about 4,200 (1.3%) were called active. This list was built around the results that the source calls inconclusive (neither active nor inactive); the mix of calls is not that of the screen. Calls follow the shape of the dose curve; as a rule, active = well fitted activation curve with a large enough effect; inconclusive = small, poorly fitted or top-dose-only effect; inactive = no such curve, though single readings can be large or run the other way. Potencies of inconclusive entries are doubtful fits and often do not repeat.
Test: qHTS screen for small molecules that induce genotoxicity in human embryonic kidney (HEK293T) cells expressing luciferase-tagged ELG1; also: nearly all actives have a fitted effect of over 60% in size; as to activity change, positive = activation: % of control where 0% means no effect
Settings: HEK293T ELG1-luciferase reporter, luminescence, 16 h; series mostly up to 46 µM
In short: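 16 hr compound incubation (37 °C, 5% CO2) of HEK293T cells carrying luciferase-tagged ELG1; luciferase then measured by ONE-Glo luminescence after 30 min at RT.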
Potency is read from the fitted curve at half-maximal effect; tags tell the direction and shape of the fitted curve.

| Compound | Potency | activity change, positive = activation |
| --- | --- | --- |
| CCOC(=O)N1CCN(S(=O)(=O)c2ccc(C(=O)Nc3sc4c(c3C(N)=O)CCN(CC)C4)cc2)CC1 | inconclusive: 32.6 µM [activator, partial curve, poor fit] |  |
| Cc1ccc(SC[C@H](c2ccccc2)N2CCN(C)CCC2=O)cc1 | inconclusive: 23.1 µM [activator, partial curve, poor fit] |  |
| CN(C(=O)c1cc(-c2ccccc2)on1)C1CCCCC1 | inconclusive: 2.06 µM [activator, partial curve, poor fit] |  |
| CC(C)CCC1(CCNC(C)c2cccs2)CCOC(C)(C)C1 (stereo unspecified) | inactive |  |
| COc1c(OC(C)=O)ccc(/C=C/c2ccc3ccccc3n2)c1[N+](=O)[O-] | inconclusive: 6.51 µM [activator, single point] |  |
| COc1cccc(-c2noc(-c3ccc(Br)o3)n2)c1 | inconclusive: 2.59 µM [activator, full curve] |  |
| O=c1c2ccccc2[nH]c2ccc(O)cc12 | inconclusive: 20.6 µM [activator, partial curve] |  |
| O=C(NCC1CCCO1)C(=O)N/N=C\c1ccc2c(c1)OCO2 (stereo unspecified) | inconclusive: 25.9 µM [activator, partial curve, poor fit] |  |
| O=C(c1cc2ccccc2oc1=O)N(Cc1ccccc1F)C1CCS(=O)(=O)C1 (stereo unspecified) | inconclusive: 18.3 µM [activator, partial curve, poor fit] |  |
| COc1ccc(NC(=O)c2ccccc2SC)cc1 | inconclusive: 20.6 µM [activator, partial curve, poor fit] |  |
| CC(C)CN1C(=O)c2ccc(C(=O)Nc3nccs3)cc2C1=O | inconclusive: 18.4 µM [activator, partial curve, poor fit] |  |
| O=C(/C=C/Nc1ccc(Oc2ccccc2)cc1)c1ccco1 | inconclusive: 2.31 µM [activator, partial curve] |  |
| CC(=O)Nc1ccccc1OCC(=O)c1ccc2c(c1)OCO2 | inconclusive: 8.2 µM [activator, single point] |  |
| CCOC(=O)c1c(NC(C)=O)sc2c(OCCN(CC)CC)c(Br)ccc12 | inconclusive: 20.6 µM [activator, single point] |  |
| O=C(Cc1csc(-c2cccc(Cl)c2)n1)Nc1cccc(S(=O)(=O)NC2=NCCC2)c1 | inconclusive: 23.1 µM [activator, single point] |  |
| CC(C)CN1CC(COCc2ccccc2)Oc2ccccc2S1(=O)=O (stereo unspecified) | inactive |  |
| O=C(CNS(=O)(=O)c1cccs1)Nc1ccc2c(c1)OCCO2 | inconclusive: 20.6 µM [activator, partial curve, poor fit] |  |
| CCc1ccc(-c2ccc(C(=O)C(F)(F)F)[nH]2)cc1 | inconclusive: 0.92 µM [activator, full curve] |  |
| C=CCN1N=C(/C=C/c2ccc(OC)cc2)CCC1=O | inconclusive: 25.9 µM [activator, partial curve, poor fit] |  |
| CCCN1CCC(=O)N([C@H](CSc2ccc(C)cc2)CC(C)C)CC1 | inconclusive: 14.6 µM [activator, partial curve, poor fit] |  |
| O=c1c2sc(-c3ccccc3)cc2nc2n1CCC2 | inconclusive: 2.06 µM [activator, partial curve] |  |
| CC(C1CC2CCC1C2)n1c(COc2ccccc2F)nnc1SCC(N)=O (stereo unspecified) | inactive |  |
| O=C(Nc1ccccc1)Nc1ccccn1 | inconclusive: 18.3 µM [activator, partial curve, poor fit] |  |
| COCCn1c(C)cc(/C=C2/SC(=O)N(C(C)C(=O)OC)C2=O)c1C (stereo unspecified) | active: 8.2 µM |  |

| Compound | Potency | activity change, positive = activation |
| --- | --- | --- |
| O=C(CN1CCCC1)Nc1ccc(Br)cc1[N+](=O)[O-] | inactive |  |
| Cc1ccnc(NC(=O)COc2ccc3oc4c(c3c2)CCCC4)c1 | inconclusive: 20.6 µM [activator, single point] |  |
| CCCc1nnc(SCC(=O)Nc2nc(C)cs2)n1CCOC | inconclusive: 20.6 µM [activator, single point] |  |
| O=C(Cn1nc(-c2ccccc2)ccc1=O)Nc1ccc(NC(=O)c2ccccn2)cc1 | inconclusive: 23.1 µM [activator, single point] |  |
| Fc1ccccc1/C=N/Nc1nc2ccccc2o1 | inconclusive: 9.2 µM [activator, partial curve] |  |
| COc1ccc(S(=O)(=O)N2CCCCCC2)cc1C(=O)N(C)Cc1ccco1 | inactive |  |
| O=c1c2c3c(sc2nc2sc(CN4CCOCC4)cn12)CCCC3 | inconclusive: 3.55 µM [activator, full curve, poor fit] |  |
| CCN1CCN(S(=O)(=O)c2ccc3c4c(cccc24)C(=O)N3CC)CC1 | inconclusive: 16.4 µM [activator, single point] |  |
| Cc1ccccc1CSc1nnc(-c2ccccn2)n1C | inconclusive: 11.6 µM [activator, partial curve, poor fit] |  |
| Nc1nnc(SCC(=O)Nc2ccc3c(c2)OCCO3)s1 | inconclusive: 23.1 µM [activator, partial curve, poor fit] |  |
| Cc1oc2c(C)c(O)ccc2c(=O)c1-c1ccc2ccccc2n1 | inconclusive: 29.1 µM [activator, partial curve, poor fit] |  |
| Cc1ccc(NC(=O)c2ccc3nc[nH]c3c2)c(O)c1 | inconclusive: 11.6 µM [activator, partial curve] |  |
| Cc1cc(-c2ccco2)c(C#N)c2nc3ccccc3n12 | inconclusive: 20.6 µM [activator, partial curve, poor fit] |  |
| CCOC(=O)CNc1c(-c2ccc(O)cc2)nc2ccc(Cl)cn12 | inconclusive: 10 µM [activator, partial curve] |  |
| CCn1c2ccccc2c2cc(NC(=O)c3cc(OC)c(OC)c(OC)c3)ccc21 | inactive |  |
| CCCc1cc(=O)oc2cc(Oc3ncccn3)ccc12 | inconclusive: 22.4 µM [activator, single point] |  |
| Cc1ccccc1Cn1c(O)c(N=NC(=S)Nc2ccccc2F)c2ccccc21 | inactive |  |
| O=C(CN1CCN(S(=O)(=O)c2ccc(F)cc2)CC1)Nc1ccc(F)cc1F |  | inactive: 5.25% [at 9.26 µM] |
| Cc1ccccc1Nc1nc(N)nc(CSc2n[nH]c(N)n2)n1 | inactive |  |
| O=C1[C@@H]2C(c3cccnc3)=NO[C@@H]2C(=O)N1c1ccc2ccccc2c1 | inactive |  |
| Cc1ccc(SCc2cn3c(C)csc3n2)cc1 | active: 1.64 µM |  |
| Clc1ccc2nc(-c3ccc(Br)s3)cn2c1 | active: 0.411 µM |  |
| Cc1ccc(CNC(=O)CN(C(=O)C2(C)CC(=O)N=C3C=CC=CN32)c2ccccc2F)cc1 (stereo unspecified) | inactive |  |
| Cc1ccc(N/N=C/c2c(O)cc(C)oc2=O)cc1 | inactive |  |

| Compound | Potency | activity change, positive = activation |
| --- | --- | --- |
| C=CCNS(=O)(=O)c1ccc(OCC(=O)OCC)cc1 | inactive |  |
| COc1ccc(C(=O)/C=C/c2ccc(N(C)C)cc2)c(OC)c1 | inconclusive: 16.4 µM [activator, partial curve, poor fit] |  |
| Cc1ccc(Nc2nc(N)nc(CSc3nncn3C)n2)cc1 | inconclusive: 20.6 µM [activator, partial curve, poor fit] |  |
| CC(C)c1nnc(NC(=O)COc2ccc3c(c2)OCO3)s1 | inconclusive: 16.4 µM [activator, single point] |  |
| Cn1c(=O)cc(OCCCC(=O)NCCC2=CCCCC2)c2ccccc21 | inconclusive: 11.6 µM [activator, partial curve, poor fit] |  |
| c1ccc(-c2nc(N3CCCCCC3)c3ccccc3n2)nc1 | inactive |  |
| COc1ccc(Cc2nc(-c3ccccn3)no2)cc1OC | inconclusive: 29.1 µM [activator, single point] |  |
| COc1cccc(Cn2cccc(NC(=O)NCc3ccccc3)c2=O)c1 | inactive |  |
| CC(=O)c1sc(NC(=O)c2cnc(Cl)c(Cl)c2)nc1C | inconclusive: 3.26 µM [activator, full curve, poor fit] |  |
| COc1cc(CNc2ccc(N3CCN(C(C)=O)CC3)cc2)ccc1OCc1ccccc1 | inconclusive: 32.6 µM [activator, partial curve, poor fit] |  |
| C[C@@H]1C[C@H]2[C@@H]3C[C@H](F)C4=CC(=O)C=C[C@]4(C)[C@@]3(F)[C@@H](O)C[C@]2(C)[C@@]1(O)C(=O)COC(=O)C(C)(C)C | inactive |  |
| Cc1ccc(OCC(=O)Nc2ccc(C)c(F)c2)c([N+](=O)[O-])n1 | inconclusive: 9.2 µM [activator, partial curve] |  |
| CC(C)C(NS(=O)(=O)c1cccs1)C(=O)N1CCC(C(N)=O)CC1 (stereo unspecified) | inactive |  |
| NNC(=O)c1ccc(Cn2cc(Cl)cn2)o1 | inactive |  |
| Clc1ccccc1OCc1nc(-c2ccccn2)no1 | active: 4.61 µM |  |
| COCC(C)N1CCC(n2nccc2NC(=O)CCCc2ccccc2)CC1 (stereo unspecified) | inactive |  |
| NC(=O)Cc1nc(-c2ccc(Br)cc2)cs1 | inactive |  |
| COCC1CCN(C(=O)c2oc3c(F)cccc3c2C)C1 (stereo unspecified) | inconclusive: 14.6 µM [activator, partial curve, poor fit] |  |
| Brc1ccc(-c2ncc(-c3ccccc3)cn2)cc1 | active: 0.82 µM |  |
| CN=c1scc(-c2ccccc2Br)n1/N=C/c1ccc[nH]1 | active: 0.461 µM |  |
| C=CCNC(=O)CCc1nnc(C2(c3ccc(Cl)cc3)CCC2)o1 | inconclusive: 18.3 µM [activator, single point] |  |
| O=C(NCCc1ccc2c(c1)OCCO2)c1ccccn1 | inconclusive: 10.3 µM [activator, partial curve] |  |
| Cc1cc(C(=O)Nc2cccc3c2O[C@@H](CN(C)S(=O)(=O)c2ccccc2)[C@H](C)CN([C@@H](C)CO)C3=O)n(C)n1 | inactive |  |
